{"source": "the supplement of paper PMC8728848", "binders": {"B1": {"name": "AT1G73650(15) (Arabidopsis thaliana), F4HRY1 (protein)", "chain": "MGTVLDSHFLALTAIVTVIYQFIFFVITALFKFDQVTDFAGSTNFVILAVLTLVLKASWHFRQIVLTLLVVVWGLRLGIFLLMETRILQWGEDRRFDEQRGNIVRLIIFWTLQAVWVWTVSLPLTLVNASDGGGSLKPADVIGWTMETWVFGFLIEAAADQQKLSFKNSPENRGKWCDVGVWKYSRHPNYFGEMETLLWWGIFVAASPVLEGAEYLVIFGPLFLTLLLLFVSGIPLLEASADKKHGNSGAYRSYKKTTSPLILFPRGVYGNLPGWFKTVFLFEFPFYSRNLPQEGRLQNSKEKEVKDD"}}, "assay_in_all_cases": "glycan array binding signal (z-score within array); higher = stronger binding", "settings_in_all_cases": "glycan notation: IUPAC condensed, linker removed", "key": {"[1]": {"target": "Gal(b1-4)GlcNAc(b1-3)Gal(b1-4)GlcNAc(b1-3)Gal(b1-4)GlcNAc", "method_in_brief": "(§1)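 The binding signal is a Z-score computed within each array and averaged over linkers. Arrays of the same protein sequence at different concentrations or buffers were also averaged together. Data originate from 3228 arrays in the Consortium for Functional Glycomics database, kept only where the protein sequence was available.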"}, "[2]": {"target": "Gal(b1-4)GlcNAc(b1-3)Gal(b1-4)GlcNAc(b1-3)Gal(b1-4)GlcNAc(b1-2)Man(a1-3)[Gal(b1-4)GlcNAc(b1-3)Gal(b1-4)GlcNAc(b1-3)Gal(b1-4)GlcNAc(b1-2)Man(a1-6)]Man(b1-4)GlcNAc(b1-4)GlcNAc", "method_in_brief": "as §1"}, "[3]": {"target": "Gal(b1-4)GlcNAc(b1-3)Gal(b1-4)GlcNAc(b1-3)Gal(b1-4)GlcNAc(b1-2)Man(a1-3)[Gal(b1-4)GlcNAc(b1-3)Gal(b1-4)GlcNAc(b1-3)Gal(b1-4)GlcNAc(b1-2)Man(a1-6)]Man(b1-4)GlcNAc(b1-4)[Fuc(a1-6)]GlcNAc", "method_in_brief": "as §1"}, "[4]": {"target": "Gal(b1-4)GlcNAc(b1-3)Gal(b1-4)GlcNAc(b1-3)Gal(b1-4)GlcNAc(b1-2)[Gal(b1-4)GlcNAc(b1-3)Gal(b1-4)GlcNAc(b1-3)Gal(b1-4)GlcNAc(b1-6)]Man(a1-6)[Gal(b1-4)GlcNAc(b1-3)Gal(b1-4)GlcNAc(b1-3)Gal(b1-4)GlcNAc(b1-2)Man(a1-3)]Man(b1-4)GlcNAc(b1-4)[Fuc(a1-6)]GlcNAc", "method_in_brief": "as §1"}, "[5]": {"target": "Gal(b1-4)GlcNAc(b1-3)Gal(b1-4)GlcNAc(b1-3)Gal(b1-4)GlcNAc(b1-3)Gal(b1-4)GlcNAc(b1-2)Man(a1-3)[Gal(b1-4)GlcNAc(b1-3)Gal(b1-4)GlcNAc(b1-3)Gal(b1-4)GlcNAc(b1-3)Gal(b1-4)GlcNAc(b1-2)Man(a1-6)]Man(b1-4)GlcNAc(b1-4)GlcNAc", "method_in_brief": "as §1"}, "[6]": {"target": "Gal(b1-4)GlcNAc(b1-3)Gal(b1-4)GlcNAc(b1-3)Gal(b1-4)GlcNAc(b1-3)Gal(b1-4)GlcNAc(b1-2)Man(a1-3)[Gal(b1-4)GlcNAc(b1-3)Gal(b1-4)GlcNAc(b1-3)Gal(b1-4)GlcNAc(b1-3)Gal(b1-4)GlcNAc(b1-2)Man(a1-6)]Man(b1-4)GlcNAc(b1-4)[Fuc(a1-6)]GlcNAc", "method_in_brief": "as §1"}, "[7]": {"target": "Gal(b1-4)GlcNAc(b1-3)Gal(b1-4)GlcNAc(b1-3)Gal(b1-4)GlcNAc(b1-3)Gal(b1-4)GlcNAc(b1-2)[Gal(b1-4)GlcNAc(b1-3)Gal(b1-4)GlcNAc(b1-3)Gal(b1-4)GlcNAc(b1-3)Gal(b1-4)GlcNAc(b1-6)]Man(a1-6)[Gal(b1-4)GlcNAc(b1-3)Gal(b1-4)GlcNAc(b1-3)Gal(b1-4)GlcNAc(b1-3)Gal(b1-4)GlcNAc(b1-2)Man(a1-3)]Man(b1-4)GlcNAc(b1-4)[Fuc(a1-6)]GlcNAc", "method_in_brief": "as §1"}, "[8]": {"target": "Gal(b1-4)GlcNAc(b1-3)Gal(b1-4)GlcNAc(b1-3)Gal(b1-4)GlcNAc(b1-3)Gal(b1-4)GlcNAc(b1-3)Gal(b1-4)GlcNAc(b1-2)Man(a1-3)[Gal(b1-4)GlcNAc(b1-3)Gal(b1-4)GlcNAc(b1-3)Gal(b1-4)GlcNAc(b1-3)Gal(b1-4)GlcNAc(b1-3)Gal(b1-4)GlcNAc(b1-2)Man(a1-6)]Man(b1-4)GlcNAc(b1-4)GlcNAc", "method_in_brief": "as §1"}, "[9]": {"target": "Gal(b1-4)GlcNAc(b1-3)Gal(b1-4)GlcNAc(b1-3)Gal(b1-4)GlcNAc(b1-3)Gal(b1-4)GlcNAc(b1-3)Gal(b1-4)GlcNAc(b1-2)Man(a1-3)[Gal(b1-4)GlcNAc(b1-3)Gal(b1-4)GlcNAc(b1-3)Gal(b1-4)GlcNAc(b1-3)Gal(b1-4)GlcNAc(b1-3)Gal(b1-4)GlcNAc(b1-2)Man(a1-6)]Man(b1-4)GlcNAc(b1-4)[Fuc(a1-6)]GlcNAc", "method_in_brief": "as §1"}, "[10]": {"target": "Gal(b1-4)GlcNAc(b1-3)Gal(b1-4)GlcNAc(b1-3)Gal(b1-4)GlcNAc(b1-3)Gal(b1-4)GlcNAc(b1-3)Gal(b1-4)GlcNAc(b1-2)[Gal(b1-4)GlcNAc(b1-3)Gal(b1-4)GlcNAc(b1-3)Gal(b1-4)GlcNAc(b1-3)Gal(b1-4)GlcNAc(b1-3)Gal(b1-4)GlcNAc(b1-6)]Man(a1-6)[Gal(b1-4)GlcNAc(b1-3)Gal(b1-4)GlcNAc(b1-3)Gal(b1-4)GlcNAc(b1-3)Gal(b1-4)GlcNAc(b1-3)Gal(b1-4)GlcNAc(b1-2)Man(a1-3)]Man(b1-4)GlcNAc(b1-4)[Fuc(a1-6)]GlcNAc", "method_in_brief": "as §1"}, "[11]": {"target": "Gal(b1-4)GlcNAc(b1-3)Gal(b1-4)GlcNAc(b1-3)Gal(b1-4)GlcNAc(b1-3)Gal(b1-4)GlcNAc(b1-3)Gal(b1-4)GlcNAc(b1-3)Gal(b1-4)GlcNAc(b1-2)Man(a1-3)[Gal(b1-4)GlcNAc(b1-3)Gal(b1-4)GlcNAc(b1-3)Gal(b1-4)GlcNAc(b1-3)Gal(b1-4)GlcNAc(b1-3)Gal(b1-4)GlcNAc(b1-3)Gal(b1-4)GlcNAc(b1-2)Man(a1-6)]Man(b1-4)GlcNAc(b1-4)GlcNAc", "method_in_brief": "as §1"}, "[12]": {"target": "Gal(b1-4)GlcNAc(b1-3)Gal(b1-4)GlcNAc(b1-3)GalNAc", "method_in_brief": "as §1"}, "[13]": {"target": "Gal(b1-4)GlcNAc(b1-3)Gal(b1-4)GlcNAc(b1-3)[Gal(b1-4)GlcNAc(b1-3)Gal(b1-4)GlcNAc(b1-6)]GalNAc", "method_in_brief": "as §1"}, "[14]": {"target": "Gal(b1-4)GlcNAc(b1-3)Gal(b1-4)GlcNAc(b1-6)[Gal(b1-3)]GalNAc", "method_in_brief": "as §1"}, "[15]": {"target": "Gal(b1-4)GlcNAc(b1-3)Gal(b1-4)[Fuc(a1-3)]GlcNAc(b1-3)Gal(b1-4)[Fuc(a1-3)]GlcNAc", "method_in_brief": "as §1"}, "[16]": {"target": "Gal(b1-4)GlcNAc(b1-3)GalNAc", "method_in_brief": "as §1"}, "[17]": {"target": "Gal(b1-4)GlcNAc(b1-3)[Fuc(a1-3)GlcNAc(b1-6)]Gal(b1-4)Glc", "method_in_brief": "as §1"}, "[18]": {"target": "Gal(b1-4)GlcNAc(b1-3)[Gal(b1-4)GlcNAc(b1-6)]Gal(b1-4)GlcNAc", "method_in_brief": "as §1"}, "[19]": {"target": "Gal(b1-4)GlcNAc(b1-3)[GlcNAc(b1-6)]Gal(b1-4)GlcNAc", "method_in_brief": "as §1"}}, "note": "The other results are listed elsewhere or left out."}
{"binder": "B1", "values": [{"measurement": "glycan array binding signal (z-score)", "setting": "[1]", "value": -0.503}, {"measurement": "glycan array binding signal (z-score)", "setting": "[2]", "value": -0.044}, {"measurement": "glycan array binding signal (z-score)", "setting": "[3]", "value": -0.186}, {"measurement": "glycan array binding signal (z-score)", "setting": "[4]", "value": 0.335}, {"measurement": "glycan array binding signal (z-score)", "setting": "[5]", "value": -0.376}, {"measurement": "glycan array binding signal (z-score)", "setting": "[6]", "value": 1.83}, {"measurement": "glycan array binding signal (z-score)", "setting": "[7]", "value": -0.173}, {"measurement": "glycan array binding signal (z-score)", "setting": "[8]", "value": -0.096}, {"measurement": "glycan array binding signal (z-score)", "setting": "[9]", "value": 0.369}, {"measurement": "glycan array binding signal (z-score)", "setting": "[10]", "value": -0.381}, {"measurement": "glycan array binding signal (z-score)", "setting": "[11]", "value": -0.416}, {"measurement": "glycan array binding signal (z-score)", "setting": "[12]", "value": -0.447}, {"measurement": "glycan array binding signal (z-score)", "setting": "[13]", "value": -0.543}, {"measurement": "glycan array binding signal (z-score)", "setting": "[14]", "value": 0.182}, {"measurement": "glycan array binding signal (z-score)", "setting": "[15]", "value": -0.65}, {"measurement": "glycan array binding signal (z-score)", "setting": "[16]", "value": -0.577}, {"measurement": "glycan array binding signal (z-score)", "setting": "[17]", "value": -0.732}, {"measurement": "glycan array binding signal (z-score)", "setting": "[18]", "value": -0.463}, {"measurement": "glycan array binding signal (z-score)", "setting": "[19]", "value": -0.319}]}
